Experimental data as given in PubChem BioAssay AID504832 (National Center for Advancing Translational Sciences (NCATS), 2011).
The campaign covered roughly 310,000 compounds. About 18,000 (5.8%) were called active. Inconclusive means that the source gave no clear call. Such entries were picked first, then a sample of the others. Calls come from the whole dose curve; as a rule, active = well fitted inhibition curve with a large enough effect; inconclusive = small, poorly fitted or top-dose-only effect, or another doubt; inactive = no such curve, though single readings can be large or run the other way. Potencies of inconclusive entries are left out as doubtful fits.

test: Primary qHTS for delayed death inhibitors of the malarial parasite plastid, 48 hour incubation; details: P. falciparum luciferase growth in erythrocytes; series mostly up to 28.7 µM
Method in brief: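 Here the parasites carry a stable luciferase gene and grow inside erythrocytes in Albumax-based RPMI medium with compound for one erythrocytic cycle. Activity is scored as loss of luminescent signal.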
Potency is the fitted concentration of half-maximal effect; tags give direction and shape of the fitted curve.

Row | Compound | Potency
1 | CCN1CCN(Cc2ccc(NC(=O)c3ccc(C)c(NC(=O)c4ccno4)c3)cc2C(F)(F)F)CC1 | inconclusive [inhibitor, single point]
2 | O=C(O)c1ccccc1N=Nc1c(O)[nH]c2ccc([N+](=O)[O-])cc12 | inconclusive [inhibitor, full curve, poor fit]
3 | CCN(CC)S(=O)(=O)c1ccc2oc(Nc3ccc(OC)cc3OC)nc2c1 | inconclusive [inhibitor, single point]
4 | Cc1cc(C)n(C(=O)CN(C)S(=O)(=O)c2ccc([N+](=O)[O-])cc2)n1 | inactive
5 | c1ccc(-n2c(SCc3ccncc3)nnc2-c2ccco2)cc1 | inconclusive [inhibitor, partial curve, poor fit]
6 | CCc1nnc(NS(=O)(=O)c2ccc(NC(=S)NC(=O)c3ccc(OC)c(OC)c3)cc2)s1 | inactive
7 | COC(=O)[C@@H]1CC[C@H](C)[C@@H](c2ccc(C)cc2)N1C(=O)c1ccc(/C=N/OCC[C@@H]2C=C[C@H](OC(C)=O)[C@@H](COC(C)=O)O2)cc1 | inconclusive [inhibitor, single point]
8 | Oc1ccccc1/C=N/Nc1nc2ccccc2o1 | active: 2.62 µM
9 | Cc1cc(=O)n(CCCc2ccccc2)[nH]1 | inconclusive [inhibitor, single point]
10 | CCn1c(Cn2nnc(-c3ccccc3)n2)nnc1SCc1ccc(Cl)c(Cl)c1 | inconclusive [inhibitor, single point]
11 | Cc1ccc(S(=O)(=O)CCC(=O)N2CCN(c3ccc(Cl)cc3)CC2)cc1 | inactive
12 | CC(Oc1ccccc1)C(=O)Nc1cccc(-c2nc3ccccc3[nH]2)c1 (centres undefined) | inconclusive [inhibitor, single point]
13 | CCN(CC)C(=O)COc1ccc2oc(-c3ccco3)cc(=O)c2c1 | inconclusive [inhibitor, single point]
14 | OC(c1ccc(F)cc1)C(CN1CCOCC1)c1ccccc1 (centres undefined) | active: 11.7 µM
15 | Cc1sc2nc(CN3CCCCC3)nc(N3CCN(C(=O)c4ccco4)CC3)c2c1C | active: 7.38 µM
16 | Cc1ccc(S(=O)(=O)Nc2cnc3ccccc3c2)cc1 | inactive
17 | C=CCN(c1ccccc1Cl)S(=O)(=O)c1cccc(C(=O)NCCc2ccc(OC)cc2)c1 | inconclusive [inhibitor, single point]
18 | NC(=O)C1CCN(c2oc(/C=C/c3ccccc3)nc2S(=O)(=O)c2ccccc2)CC1 | inconclusive [inhibitor, partial curve]
19 | O=C(COC(=O)C1COc2ccccc2O1)Nc1ccc(Cl)cc1 (centres undefined) | inactive
20 | Nc1ccccc1O | inconclusive [inhibitor, partial curve, poor fit]
21 | CC(C)CN(C(=O)COC(=O)CCCc1c[nH]c2ccccc12)c1c(N)n(Cc2ccccc2)c(=O)[nH]c1=O | inconclusive [inhibitor, partial curve, poor fit]
22 | COc1cc(/C=C2\CC/C(=C\c3ccc(OCCO)c(OC)c3)C2=O)ccc1OCCO | inconclusive [inhibitor, partial curve]
23 | CC1=CC(C)[C@H](/C=N/n2c(=O)[nH]c3c([nH]c4ccc(C)cc43)c2=O)C(C)C1 (some centres undefined) | inconclusive [inhibitor, full curve]

Row | Compound | Potency
24 | CC(C(=O)Nc1cccc(S(=O)(=O)N2CCOCC2)c1)N1CCN(c2ccc(F)cc2)CC1 (centres undefined) | inactive
25 | CCCc1cc(=O)oc2cc(C)cc(OC(C)C(=O)NCCN3CCOCC3)c12 (centres undefined) | active: 10.4 µM
26 | CCCn1cc(S(=O)(=O)c2ccc(C)cc2)c(=O)c2cc(OC)c(OC)cc21 | inactive
27 | CCc1ccccc1NC(=O)CN1CCN(C(=O)c2ccc(OCc3cn4ccccc4n3)cc2)CC1 | inconclusive [inhibitor, single point]
28 | CC(=O)c1sc(NC(C)c2ccccc2)nc1C (centres undefined) | inactive
29 | COc1ccccc1C(=O)NCC(=O)NNC(=O)C1COc2ccccc2O1 (centres undefined) | inactive
30 | CC(=O)N1c2ccc(S(=O)(=O)NCC3CCC(C(=O)Nc4ccc(C)cn4)CC3)cc2CC1C (centres undefined) | inconclusive [inhibitor, single point]
31 | C=CCn1c(=NC(=O)c2ccc(S(=O)(=O)N3CCCc4ccccc43)cc2)sc2cc(S(N)(=O)=O)ccc21 | active: 5.22 µM
32 | O=C(O)COc1ccccc1/C=N/NC(=O)c1cc2ccccc2cc1O | inactive
33 | Cc1cccc(NC(=S)NC2CCCCCC2)c1C | inconclusive [inhibitor, single point]
34 | COC(=O)c1ccc(C2c3c(oc4ccc(Cl)cc4c3=O)C(=O)N2CCN2CCOCC2)cc1 (centres undefined) | inconclusive [inhibitor, single point]
35 | Cc1cc(C)nc(SCc2cc(=O)c(OC(=O)c3ccco3)co2)n1 | inconclusive [inhibitor, partial curve, poor fit]
36 | COc1ccccc1N(C(=O)CNC(=O)c1ccco1)C(C(=O)NC1CCCCC1)c1ccncc1 (centres undefined) | inactive
37 | Cc1ccc2c(c1)nc(-n1nc(C)cc1C)c1nnnn12 | inactive
38 | c1ccc(Cn2ncc3c(N4CCCCC4)ncnc32)cc1 | inconclusive [inhibitor, partial curve, poor fit]
39 | CC(=O)Nc1ccc(NC2=Nc3ccccc3N3C2=Nc2c(c(C)nn2-c2ccccc2)C3c2ccccc2)cc1 (centres undefined) | active: 0.928 µM
40 | C=CCNC(=O)c1ccccc1NC(=O)c1ccc(Cl)c(S(=O)(=O)Nc2cc(C)ccc2C)c1 | inconclusive [inhibitor, single point]
41 | CCc1c(C)c(C#N)c2nc3ccccc3n2c1Cl | inconclusive [inhibitor, full curve]
42 | C=CCOc1ccccc1CN1CCC(Cc2ccccc2)CC1 | inactive
43 | O=C(CNC(=O)c1ccc(S(=O)(=O)N2CCCC2)cc1)N/N=C/c1ccccc1Cl | inconclusive [inhibitor, partial curve, poor fit]
44 | CCOC(=O)c1[nH]c2cc(OC)c(OC)cc2c1NC(=O)CN1CCN(c2ccc(OC)cc2)C(C)C1 (centres undefined) | active: 9.28 µM
45 | CCNS(=O)(=O)c1ccc(NC(=S)NCC2CCCO2)cc1 (centres undefined) | inactive
46 | CN1C(=O)c2c(sc3c2CC(C)(C)SC3)N2CCN=C12 | inactive

Row | Compound | Potency
47 | COc1cc(C(=O)NCCCN2CCCC2=O)ccc1OCc1ccc(Cl)cc1Cl | active: 10.4 µM
48 | CC(C)(C)c1ccc(OCCC(=O)NCC(c2cccs2)N2CCOCC2)cc1 (centres undefined) | inconclusive [inhibitor, single point]
49 | Cc1cc(C)cc(NC(=O)CN(C)CC(=O)N(CC(C)C)c2c(N)n(CC(C)C)c(=O)[nH]c2=O)c1 | inconclusive [inhibitor, partial curve, poor fit]
50 | Cc1cc(C)c(S(=O)(=O)c2ccccc2C)c(SCC(C)C)n1 | inconclusive [inhibitor, single point]
51 | C=C(C)CNC(=S)N/N=C1\CCCCc2ccccc21 | inconclusive [inhibitor, partial curve, poor fit]
52 | CCOC(=O)C1CCN(C(=O)CCNS(=O)(=O)c2cc(Br)cnc2N)CC1 | inconclusive [inhibitor, single point]
53 | S=C(Nc1ccccc1)Nc1nccs1 | inconclusive [inhibitor, single point]
54 | O=C(NC1C2CCCC1CN(C1CC1)C2)c1ccc(Cl)cc1 (centres undefined) | inconclusive [inhibitor, single point]
55 | CCN(CC)C(=O)c1ccc(-c2nnc(Nc3cccc(O)c3)c3ccccc23)cc1 | active: 2.94 µM
56 | O=C(COC(=O)c1c(F)cccc1Cl)NC(=O)Nc1ccc2c(c1)OCCO2 | inactive
57 | CCOC(=O)C1CCN(C(=O)CCn2c(=O)[nH]c3ccsc3c2=O)CC1 | inactive
58 | CCOC(=O)c1sc(C)c2c1NC(c1ccc(N(C)C)cc1)NC2=O (centres undefined) | inconclusive [inhibitor, single point]
59 | COC(=O)c1ccc(NC(=O)CCN2C(=O)CSC2=O)cc1 | inactive
60 | Cc1ccc(OCc2nnc(SCC(=O)c3cccc([N+](=O)[O-])c3)n2C)cc1 | inconclusive [inhibitor, partial curve]
61 | COc1ccc(C(=O)Nc2ccc(C)c(S(=O)(=O)N3CCCCCC3)c2)cc1 | inconclusive [inhibitor, partial curve]
62 | Cc1cc(C#N)c(C)n1-c1cc(C(F)(F)F)ccc1N1CCOCC1 | inconclusive [inhibitor, partial curve, poor fit]
63 | CN1CCN(CCc2nc3cc(NC(=O)COc4ccccc4)ccc3n2C)CC1 | inconclusive [inhibitor, single point]
64 | COc1ccc(CCNC(=O)CN2C(=O)NC(Cc3c[nH]c4ccccc34)C2=O)cc1 (centres undefined) | inactive
65 | O=C(Nc1ccc(N2CCCC2)c(Cl)c1)c1ccc([N+](=O)[O-])o1 | inconclusive [inhibitor, single point]
66 | COc1ccc(C2CC(c3cccs3)=NN2c2nc(C)c(C(C)=O)s2)cc1OC (centres undefined) | inconclusive [inhibitor, single point]
67 | C=CC1CN2CCC1CC2C(OC(=O)OCC)c1ccnc2ccc(OC)cc12 (centres undefined) | active: 1.69 µM
68 | c1ccc2c(NCC3CCCO3)nc(-c3ccncc3)nc2c1 (centres undefined) | active: 13.1 µM
69 | O=C(Cn1cccn1)N1CCCC(N2CCN(c3cccc(C(F)(F)F)c3)CC2)C1 (centres undefined) | inconclusive [inhibitor, full curve, poor fit]
